# Test results: the supplement of paper PMC3334620
# Whole data set: some 33,000 sequences, median “E-score (-0.5 to 0.5)” near -0.036, cut for the highest 2% near 0.37. The list shows a part of the results.
# Target: T1, Yer064c (UniProt P40041)
# T1 sequence: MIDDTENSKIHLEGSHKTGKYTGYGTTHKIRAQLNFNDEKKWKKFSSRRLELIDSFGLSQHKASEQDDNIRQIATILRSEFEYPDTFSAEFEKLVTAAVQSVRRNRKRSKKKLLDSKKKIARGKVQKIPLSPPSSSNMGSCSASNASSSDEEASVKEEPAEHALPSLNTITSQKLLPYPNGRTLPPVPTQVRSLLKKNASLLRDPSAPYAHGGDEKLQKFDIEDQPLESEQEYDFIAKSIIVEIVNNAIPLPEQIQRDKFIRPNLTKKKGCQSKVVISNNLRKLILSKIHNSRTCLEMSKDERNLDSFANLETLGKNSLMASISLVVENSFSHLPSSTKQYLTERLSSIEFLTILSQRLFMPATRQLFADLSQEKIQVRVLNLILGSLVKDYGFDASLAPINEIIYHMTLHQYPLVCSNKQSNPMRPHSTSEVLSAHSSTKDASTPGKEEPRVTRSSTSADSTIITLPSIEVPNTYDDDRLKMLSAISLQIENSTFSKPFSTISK
# Assay: PBM E-score (8-mer binding enrichment) (E-score (-0.5 to 0.5)); higher = stronger / more preferred TF binding; most listed sequences are background and not binding sites
# Conditions: protein concentration: 200 nM; construct: GST-full length
# Experimental: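 Universal 'all 10-mer' protein binding microarrays (Agilent AMADID 015681) probed with GST-tagged S. cerevisiae TFs (full-length or DBD) made by in vitro transcription/translation (PURExpress), about 100-200 nM. Bound TF was detected with fluorescent anti-GST. Each ungapped 8-mer (which stands for itself and its reverse complement) is scored by the PBM enrichment score (E-score), a modified Wilcoxon-Mann-Whitney statistic from -0.5 to +0.5, computed with the Universal PBM Analysis Suite. Scale: above 0.35 generally sequence-specific binding.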
row,Sequence,PBM E-score
1,AAGTTGAT,0.0569
2,CCGGCTTC,-0.282
3,CATAATCA,0.413
4,ACTGATGC,-0.0721
5,AGTGTCTG,-0.00225
6,CCTCTCTC,-0.204
7,ACCCGGTC,-0.194
8,ACTTATTC,0.13
9,AAGCTTCG,-0.225
10,CGTGCGAC,0.105
11,TAGGACCA,-0.246
12,CATCCAAA,0.0387
13,ATTATATG,0.204
14,AGTGGCAG,-0.194
15,CACTTCGG,-0.131
16,GGTTCTCA,0.0795
17,CCCCGTAG,-0.0708
18,CTCAATGA,0.234
19,AGCAAAGC,-0.147
20,TAACATTA,-0.00272
21,TGCGAAAA,0.0794
22,CCTCACGA,-0.0431
23,GTCCGGGA,0.00941
24,ATAATTCC,-0.142
25,CCAATATC,-0.156

row,Sequence,PBM E-score
1,ATCTCACA,0.231
2,ACCTACCC,-0.108
3,AAGAGAGG,-0.104
4,GAAAAGTC,0.183
5,AGAATGCT,-0.194
6,AAATGTTG,-0.325
7,TACATGGA,-0.0643
8,CCAGCCAC,-0.0125
9,GAGCCTAC,0.00047
10,ATGAAACG,-0.221
11,CCCCGTAA,-0.0314
12,ATTATTGA,0.0793
13,AGGGTTGC,-0.203
14,CAAGCGCC,-0.245
15,CACAGGAC,0.111
16,AGTAGTTC,0.0493
17,ACCTAGAG,-0.0157
18,GTCGGGCA,-0.102
19,AAATCGAT,0.178
20,ACTTTAGG,-0.109
21,CTTTGCAA,-0.0619
22,GGCGCTAA,-0.134
23,CCTCTCAG,-0.261
24,GACTCCGC,0.406
25,AGACGTTG,-0.121

row,Sequence,PBM E-score
1,ACCCGTTG,0.0442
2,ACCGGAAC,-0.0777
3,CATTTGGA,0.0626
4,AGAGTTCA,0.0918
5,GACCCGTC,-0.198
6,CGGGGGGA,-0.208
7,CTAAGTTC,-0.00119
8,AACATATA,-0.0277
9,AGGGCTGG,-0.22
10,GGAGATCC,-0.237
11,AATGTCTA,0.168
12,TTGCAAAA,-0.0977
13,CACCGACC,-0.149
14,AATGTTAA,0.0712
15,ACTGCGAT,0.0303
16,AGACCGCA,-0.188
17,CAAGCAAG,-0.0296
18,AGCTCCAA,0.0829
19,GGCCTCGA,-0.288
20,CCTGGCAA,-0.288
21,GTCACTAA,0.257
22,ATTACCGC,-0.00207
23,TCAAGGGA,0.162
24,GCTTCCCC,-0.44
25,ATCAACCC,0.0851

row,Sequence,PBM E-score
1,AGGCGCGA,-0.027
2,ACCCCACA,0.0478
3,AAGGGTGC,-0.138
4,TAGTCTCA,0.36
5,CATTTCCG,0.158
6,CTACGACA,0.116
7,CCCGCCAG,-0.159
8,ACCCAGAG,0.0289
9,CAAAAAGA,0.137
10,CGTTAGGC,-0.237
11,AACCTACT,-0.229
12,CTCGGAGC,-0.0319
13,CCCGTAGC,-0.19
14,AATAAGCG,-0.0876
15,CTACACAC,0.0826
16,AATTCACA,-0.0891
17,GACGGGGC,-0.251
18,CAACGTTA,-0.024
19,CGAAGTGC,-0.0428
20,GTATTCCA,-0.0362
21,TTACTAAA,0.214
22,CCTAGGCG,-0.178
23,GGCAAGTA,0.0688
24,AATAAAAC,0.0489
25,GTCAGAAA,0.211

row,Sequence,PBM E-score
1,ACACAACC,0.0769
2,CATGATTC,0.457
3,ATAATGGA,-0.0018
4,CGTGCAGC,-0.188
5,ACCCATTC,0.158
6,ATTACTAA,0.24
7,GGGGGCCA,-0.21
8,ACATGCTG,-0.105
9,ATACTATG,0.0358
10,CCTTAACG,-0.106
11,CACCACCA,0.0278
12,AAATGCGG,-0.0645
13,GTTTGAAA,0.0216
14,ACAATGTG,-0.0494
15,GCCACATA,-0.136
16,CGCTTACC,-0.223
17,ACATGCGT,-0.0835
18,CGACGGAC,-0.0779
19,CCATTGGA,0.0747
20,GATGTGTA,0.205
21,CATTTCGC,0.0492
22,ATCAAGCG,-0.0196
23,CTTTGCGC,0.0446
24,AAAATGAA,0.137
25,GCGCATTA,-0.112

row,Sequence,PBM E-score
1,AGATCTTA,0.137
2,GTTACTCA,0.366
3,CTTGCGCA,0.0552
4,CGTGATGC,-0.146
5,CGGGATGC,-0.242
6,CCGACGGC,-0.262
7,CAGTCCCG,0.0449
8,CGTGTCAA,-0.129
9,GCGATTAA,0.318
10,AGTAGCTG,0.0121
11,AACTATAT,0.0502
12,GAGGCGTA,-0.151
13,CGTGCTAG,-0.2
14,ATCATCTG,0.177
15,AAGATTTC,0.0103
16,ACCATTTG,-0.0247
17,TCAGACCA,0.0958
18,AGCTTGAA,0.018
19,GAACTAAA,0.104
20,CCTTATGA,0.0853
21,CCTTTCAG,-0.195
22,CAAGTTAC,0.0259
23,GGAGCGCA,-0.294
24,ATTTTACC,0.11
25,GTTTGGAA,0.0298

row,Sequence,PBM E-score
1,CGCTTCCA,-0.24
2,ATAGGCGG,-0.0798
3,CGCGACAC,-0.0809
4,GGACAGAC,0.0337
5,GAAGGATC,-0.0298
6,ACCACGTA,-0.125
7,AGTGCGTA,-0.144
8,CGAGGAAG,-0.105
9,ACTTCTCA,0.141
10,GACAGTGC,-0.142
11,CGTGAGCA,0.00099
12,CAATACCG,-0.235
13,AGCATGGG,-0.137
14,GAATGAGA,0.0143
15,AATGTGCA,-0.0487
16,GGAGTGCA,-0.0273
17,AAGCAAGC,-0.194
18,GTAAATAC,-0.0376
19,AGTGAGCG,0.00506
20,AAGTTTCC,-0.17
21,TTGCGAAA,-0.085
22,GAAAAGTA,-0.0395
